Test results published in PubChem BioAssay AID760 (NMMLSC, 2007).
In all, about 190,000 compounds went through this assay and about 360 (0.19%) were called active. The shares of active, inactive and inconclusive entries below differ from those in the screen.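 Rule for the calls: active = GTP binding activity at least 20 points away from 100%, either lowered or raised; inconclusive = signal likely due to the compound's own green fluorescence; inactive = the rest.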

These molecules were tested against Ras-related protein Rab-2A (Canis lupus familiaris) (UniProt P61105) (assay: Rab2 wt fluorescent GTP binding changes, either direction – biochemical, dog, bead-based flow cytometry, multiplex, primary screen (AID 760;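 note: 0% = beads with excess unlabeled GTP and 100% = no-compound control corrected for plate trend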)). Conditions: GST-Rab2 wt beads, Bodipy-GTP binding, at 10 µM.
With `CCOc1ccc(N(C(=O)CNC(=O)c2ccco2)C(C(=O)NC2CCCC2)c2ccncc2)cc1` (stereo not given) the GTP binding activity was inactive: 98%. In the case of `N=C1C(=O)OCC1c1ccccc1NC(=O)CN1CCOCC1` (stereo not given), the GTP binding activity is reported as inactive: 100%. For `CCN(CC(=O)Nc1ccccc1OC)C(=O)C1CC2C=CC1C2` (stereo not given), the GTP binding activity was inconclusive: 92%. With `Nc1nnc(SCC(=O)OCC(=O)c2ccccc2Br)s1` the GTP binding activity was inconclusive: 90%. For `O=C(OC1CCCCC1=O)c1cc(Cl)ccc1[N+](=O)[O-]` (stereo not given), the GTP binding activity was inactive: 98%. For `COCC(C)n1c(SCc2cc(=O)n3cc(C)ccc3n2)nc2ccccc2c1=O` (stereo not given), the GTP binding activity was inconclusive: 91%. In the case of `O=C(OCC1OC(n2cnc3c(N(C(=O)c4ccccc4)C(=O)c4ccccc4)ncnc32)C(O)C1F)c1ccccc1` (stereo not given), the GTP binding activity is reported as inconclusive: 105%. `O=C(O)/C=C/c1cn(Cc2ccccc2)nc1-c1ccccc1` was tested, and the GTP binding activity was inconclusive: 124%. For `CC(C)c1nc2n[nH]c(N)c2c2c1CCC2`, the GTP binding activity was inconclusive: 105%. In the case of `COc1ccc(C(=O)OCC(=O)NCC2CCCO2)cc1[N+](=O)[O-]` (stereo not given), the GTP binding activity is reported as inactive: 93%. `O=C(Nc1nnc(-c2ccc3c(c2)OCCO3)o1)c1ccc(Cc2ccccc2)cc1` was tested, and the GTP binding activity was inactive: 81%. With `CCOC(=O)n1n[n+]([O-])c2ccccc21` the GTP binding activity was inconclusive: 103%. In the case of `O=C(CCCn1c(=S)[nH]c2ccccc2c1=O)NCCSCc1ccccc1`, the GTP binding activity is reported as inactive: 96%. For `CC(C)NC(=O)CSCc1c(F)cccc1Cl`, the GTP binding activity was inactive: 96%. In the case of `NC(=O)C1CCN(CC(=O)NCc2ccccc2)CC1`, the GTP binding activity is reported as inconclusive: 102%. In the case of `O=C(CNS(=O)(=O)c1ccc(Br)cc1)OCc1cc(=O)n2cc(Br)ccc2n1`, the GTP binding activity is reported as inconclusive: 95%. `COc1cccc(CNC(=O)CCS(=O)(=O)c2cccc3nonc23)c1` was tested, and the GTP binding activity was inconclusive: 100%. `CCc1nnc(NS(=O)(=O)c2ccc(N/C=C\C(=O)c3ccc(F)cc3)cc2)s1` was tested, and the GTP binding activity was inconclusive: 89%. `Cc1c(NC(=O)c2ccc(-c3ccc([N+](=O)[O-])cc3Cl)o2)c(=O)n(-c2ccccc2)n1C` was tested, and the GTP binding activity was inconclusive: 92%. In the case of `C=CCc1ccccc1OCC(O)CN1CCN(c2ccc(C)cc2)CC1` (stereo not given), the GTP binding activity is reported as inconclusive: 93%. With `O=C(Nc1cccc(O)c1)c1ccc(Br)c(S(=O)(=O)N2CCCCC2)c1` the GTP binding activity was inconclusive: 92%. With `CCOC(=O)c1ccccc1NC(=O)Cn1c(-c2nonc2N)nc2ccccc21` the GTP binding activity was inactive: 100%. With `CC(C)CNC(=O)C(=O)NNC(=O)C1CCCCC1` the GTP binding activity was inconclusive: 105%. For `N#Cc1c(=O)c2nc(NCc3ccccc3)ncc2n2ccccc12`, the GTP binding activity was inactive: 80%. With `CCn1c(=O)cc(SCC(=O)N2CCC(C)CC2)c2ccccc21` the GTP binding activity was inconclusive: 94%. For `COc1cc(/C=C(\C#N)c2nc3ccc(C)cc3[nH]2)cc([N+](=O)[O-])c1O`, the GTP binding activity was active: 77%. In the case of `O=[N+]([O-])c1ccc(Cl)cc1N1CCCCC1`, the GTP binding activity is reported as inactive: 95%. In the case of `Cc1nc(NCc2ccccn2)c2ccccc2n1`, the GTP binding activity is reported as inactive: 97%. For `Cc1c(CCOC(=O)c2cccc([N+](=O)[O-])c2)sc[n+]1CC(=O)c1ccccc1`, the GTP binding activity was inactive: 98%. For `Cc1ccc(NC(=O)CSc2ncn[nH]2)cc1S(=O)(=O)N1CCOCC1`, the GTP binding activity was inconclusive: 92%. `COc1ccccc1-c1nc(C#N)c(N2CCN(C(c3ccccc3)c3ccccc3)CC2)o1` was tested, and the GTP binding activity was inconclusive: 93%. With `c1ccc(COc2ccc(OCCCCN3CCCCC3)cc2)cc1` the GTP binding activity was inconclusive: 104%. `CC(C)NC(=O)Cn1nnc(-c2ccc(Cl)cc2)n1` was tested, and the GTP binding activity was inconclusive: 98%. For `Fc1ccccc1N1CCN(c2ncnc3[nH]ncc23)CC1`, the GTP binding activity was inconclusive: 89%. `CC(C)Nc1nnc(SC(C)C(=O)Nc2ccc(Cl)cn2)s1` (stereo not given) was tested, and the GTP binding activity was inactive: 105%. With `N#Cc1ccc(-c2ccc(Cl)cc2)nc1Oc1ccc(F)cc1` the GTP binding activity was inconclusive: 106%. In the case of `Cc1cccc(/N=C2/NC(=O)C(Cc3ccccc3)S2)n1` (stereo not given), the GTP binding activity is reported as inconclusive: 100%. For `CCC(OC(=O)c1cc2sccc2n1C)C(=O)NCc1ccco1` (stereo not given), the GTP binding activity was active: 36%. `C#CCSc1nsc(SCC#C)c1C#N` was tested, and the GTP binding activity was inconclusive: 98%. `CCOc1cc(C2c3c(-c4ccccc4)n[nH]c3C(=O)N2c2ccc(C(=O)O)cc2)ccc1O` (stereo not given) was tested, and the GTP binding activity was active: 79%. `CN1C=CC=C/C1=C1\SC(=S)N(c2ccccc2)C1=O` was tested, and the GTP binding activity was inconclusive: 106%. `CC(C)CN=Cc1c(O)c([N+](=O)[O-])cc2oc3c(c12)CCCC3` was tested, and the GTP binding activity was inactive: 94%. `CC(=O)N1Cc2cc([N+](=O)[O-])ccc2Oc2ccccc21` was tested, and the GTP binding activity was inactive: 96%. `COc1ccc(N=C2NC(=O)/C(=C/c3ccc(O)c(OC)c3)S2)cc1` was tested, and the GTP binding activity was inactive: 93%. In the case of `COCCCNC(=O)C1CCN(c2nc(C)cc(C)n2)CC1`, the GTP binding activity is reported as inconclusive: 107%. `COc1ccc(C(=O)NC(=S)Nc2ccc(Cc3ccncc3)cc2)cc1` was tested, and the GTP binding activity was inactive: 95%. `Cc1ccc(C)n1-c1nccc(-c2ccco2)n1` was tested, and the GTP binding activity was inactive: 101%. `O=C(COc1ccccc1/C=C\c1[nH]c(=O)[nH]c(=O)c1[N+](=O)[O-])Nc1ccccc1` was tested, and the GTP binding activity was active: 77%. `CCc1ccc(NC(=O)c2ccc3ncsc3c2)cc1` was tested, and the GTP binding activity was inconclusive: 102%. With `Clc1ccc2c(c1)CCc1cccnc1C2=C1CCNCC1` the GTP binding activity was inconclusive: 102%. In the case of `O=C(Cc1nc(=O)c2ccccc2s1)Nc1ccccc1`, the GTP binding activity is reported as inconclusive: 88%. For `Cc1ccc(S(=O)(=O)Cn2nnnc2CN2CCN(Cc3ccc4c(c3)OCO4)CC2)cc1`, the GTP binding activity was inconclusive: 102%. `CC(C)(C)C(C(=O)O)N1CCS(=O)(=O)CC1` (stereo not given) was tested, and the GTP binding activity was inactive: 100%. For `CCc1cc2cc(OC)ccc2nc1SCC(=O)Nc1cc(OC)c(OC)cc1C(=O)O`, the GTP binding activity was inconclusive: 95%. With `Cc1cc(C)n2nc(C(=O)N3CCCC(CNS(=O)(=O)c4cccs4)C3)cc2n1` (stereo not given) the GTP binding activity was active: 33%. In the case of `OC(CNCC1CCCO1)Cn1c2ccc(Cl)cc2c2cc(Cl)ccc21` (stereo not given), the GTP binding activity is reported as inconclusive: 103%. In the case of `CC(=O)Nc1ccc(NC(=O)c2c(C)nn(-c3ccccc3)c2Cl)cc1C`, the GTP binding activity is reported as inactive: 98%. `COc1ccc(Nc2nc3ccc(C)cn3c(=O)c2/C=N/O)cc1` was tested, and the GTP binding activity was inconclusive: 85%. In the case of `CCCCN(C)CCNC(=O)c1ccc(Cn2c(=S)[nH]c3ccc(Br)cc3c2=O)cc1`, the GTP binding activity is reported as inactive: 95%. With `CCOCCCNc1nc(=S)[nH]c2cc(OC)c(OC)cc12` the GTP binding activity was inconclusive: 61%. `N#Cc1c(-c2ccccc2Cl)cc(-c2ccccc2)[nH]c1=S` was tested, and the GTP binding activity was inactive: 96%. `COc1ccc(S(=O)(=O)Cc2ccc(C(=O)N3CCN(c4cccc(C)c4C)CC3)o2)cc1` was tested, and the GTP binding activity was inconclusive: 71%. For `CCSc1nnc(NC(=O)[C@@H](NC(=O)c2ccc(C(C)(C)C)cc2)C(C)C)s1`, the GTP binding activity was inactive: 93%. With `CCN1CCN(c2oc(COc3ccc(-c4ccccc4)cc3)nc2C#N)CC1` the GTP binding activity was inconclusive: 93%. For `COc1ccc(S(=O)(=O)N(C)C)cc1NC(=O)CSc1ncccn1`, the GTP binding activity was inactive: 97%. With `O=C(O)c1cccnc1SCc1ccccc1Cl` the GTP binding activity was inactive: 118%. With `CCN(CC)S(=O)(=O)c1ccc2c(c1)c(=O)c(C(=O)NCCN(C)CCc1ccccc1)cn2C` the GTP binding activity was inconclusive: 105%. `O=C(Cn1cc([N+](=O)[O-])cn1)Nc1cccnc1` was tested, and the GTP binding activity was inconclusive: 98%. For `CCNS(=O)(=O)c1ccc2c(c1)NCC2`, the GTP binding activity was inactive: 97%. With `COc1ccc2cc(C)c3nnc(SCC(=O)Nc4nc(-c5ccc(F)cc5)cs4)n3c2c1` the GTP binding activity was inconclusive: 94%. `Cn1c(/C=C(\C#N)C(N)=S)ccc1-c1ccc(Br)cc1` was tested, and the GTP binding activity was inactive: 92%. `CCNC(=O)NC(=O)C(C)Oc1ccc(Br)cc1Br` (stereo not given) was tested, and the GTP binding activity was inactive: 93%. In the case of `N#C/C(=C/c1ccc(N2CCCCCC2)o1)c1cccc(F)c1`, the GTP binding activity is reported as inconclusive: 111%. For `O=C(COc1nc2ccccc2nc1N1CCOCC1)NC1CCCCC1`, the GTP binding activity was inconclusive: 98%. With `O=C(CN(Cc1ccccc1)S(=O)(=O)c1ccccc1)N/N=C/c1ccccc1C(=O)O` the GTP binding activity was inactive: 95%. `CC1CN(c2ccc([N+](=O)[O-])nc2)CC(C)O1` (stereo not given) was tested, and the GTP binding activity was inactive: 99%. For `Cc1occc1C(=O)N/N=C/c1cccs1`, the GTP binding activity was inconclusive: 103%. `COc1ccc(S(=O)(=O)NCC2CCCN(CC(C)(C)C)C2)cc1` (stereo not given) was tested, and the GTP binding activity was inactive: 101%. With `O=C(Nc1ccc(CCC(=O)N2CCCC2)cc1)c1ncn[nH]1` the GTP binding activity was inconclusive: 100%. In the case of `O=C1CS/C(=C\S(=O)(=O)c2ccc(Cl)cc2)N1`, the GTP binding activity is reported as inconclusive: 103%. `Cc1ccc(NC(=O)CCCc2nc3ccccc3s2)c(O)c1` was tested, and the GTP binding activity was inconclusive: 92%. `COc1cc2nc(=S)n(CCCN3CCOCC3)c(N)c2cc1OC` was tested, and the GTP binding activity was inconclusive: 62%. `Cc1cc(OC(=O)c2ccc3ccccc3c2)c([N+](=O)[O-])c(=O)[nH]1` was tested, and the GTP binding activity was inconclusive: 92%. For `COc1ccc(-c2cc(-c3ccc(O)cc3)nc(N)c2C#N)cc1OC`, the GTP binding activity was active: 79%. In the case of `Cc1cc(C)nc(N(C#N)Cc2ccc([N+](=O)[O-])cc2)n1`, the GTP binding activity is reported as inconclusive: 91%. In the case of `Cc1noc(N)c1C(=O)Nc1ccc(F)cc1`, the GTP binding activity is reported as inconclusive: 105%. In the case of `CCOC(=O)C1C2C=CC3(CN(Cc4cccs4)C(=O)C13)O2` (stereo not given), the GTP binding activity is reported as inconclusive: 102%. With `CCOc1cc2nc(-c3ccc(OC)c(OC)c3)nc(NCCCN3CCOCC3)c2cc1OC` the GTP binding activity was inconclusive: 85%. With `O=c1c2ccccc2nnn1Cc1ccc(Br)cc1` the GTP binding activity was inconclusive: 92%. `COc1ccc(CNC(=O)COC(=O)/C=C/c2ccco2)cc1` was tested, and the GTP binding activity was inconclusive: 91%. For `CN1CCN(C(=S)c2cn(CCOc3ccccc3)c3ccccc23)CC1`, the GTP binding activity was inactive: 95%. `OCCSc1nc(N2CCOCC2)nc(N2CCOCC2)n1` was tested, and the GTP binding activity was inactive: 96%. `C=CCN(C(=O)c1cccc(C(F)(F)F)c1)C1(C(=O)Nc2ccccc2)CCN(C(C)C)CC1` was tested, and the GTP binding activity was inconclusive: 95%. `O=c1[nH]n2c(-c3ccccc3)nc(O)c2c2ccccc12` was tested, and the GTP binding activity was inactive: 95%. With `COc1cccc2c(SCC(=O)N/N=C/c3ccc(O)cc3O)cc(C)nc12` the GTP binding activity was active: 66%.
